This is one part of the list. Cut-off read from the data, not from the text of the source: active = 3.2 or more and inactive = the rest. The signal is at background level for most entries.
B1: F12_Y58_YF (peptide)
chain: FHRQLYHKCTH
B2: F12_Y53_Y53C_YF (peptide)
chain: HFPFQCHRQLF
B3: F8_Y1990_L1994P_YF (peptide)
chain: RKKEEYKMAPF
B4: F8_Y1990_L1994P (peptide)
chain: RKKEEYKMAPY
B5: F5_Y2153_Y2149C_YF (peptide)
chain: MCVKSYTIHFS
B6: ETV6_Y402_YF (peptide)
chain: ALRHFYKLNII
B7: EXOSC3_Y143 (peptide)
chain: PASLSYLSFEG
B8: F10_Y384_R387H (peptide)
chain: MLEVPYVDHNS
B9: EZH2_Y641_Y641S (peptide)
chain: EFISESCGEII
B10: F5_Y2149 (peptide)
chain: LSSEMYVKSYT
B11: F12_Y53_YF (peptide)
chain: HFPFQYHRQLF
B12: F5_Y2153_Y2149C (peptide)
chain: MCVKSYTIHYS
B13: F5_Y2149_YF (peptide)
chain: LSSEMYVKSFT
B14: F5_Y2149_M2148T_YF (peptide)
chain: LSSETYVKSFT
B15: ETFDH_Y172_R175L (peptide)
chain: NNHGNYIVLLG
B16: F12_Y58 (peptide)
chain: YHRQLYHKCTH
B17: EZH2_Y641_Y641C (peptide)
chain: EFISECCGEII
B18: F2_Y434_R431H (peptide)
chain: HSHTRYERNIE
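Note: displayed peptides selected on beads carrying the immobilized SH2 domain, with library peptides lacking any tyrosine serving as negative controls.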

The binders below were run against SHP2 C-SH2 domain E139D (assay: enrichment score (SH2-bound / input frequency) (ratio); bacterial display of known human phosphotyrosine sites (pTyr-Var adds point mutants) read by sequencing; higher = stronger binding; tyrosines were phosphorylated by kinases first). Conditions: peptide library: pTyr-Var.
In the case of B1, the enrichment score is reported as inactive: 2.31. In the case of B2, the enrichment score is reported as inactive: 1.71. In the case of B3, the enrichment score is reported as inactive: 0.617. B4 was tested, and the enrichment score was inactive: 0.681. With B5 the enrichment score was inactive: 0.972. In the case of B6, the enrichment score is reported as active: 5.04. In the case of B7, the enrichment score is reported as inactive: 0.93. In the case of B8, the enrichment score is reported as inactive: 0.883. In the case of B9, the enrichment score is reported as inactive: 0.563. B10 was tested, and the enrichment score was inactive: 0.795. For B11, the enrichment score was active: 3.26. In the case of B12, the enrichment score is reported as inactive: 1.02. For B13, the enrichment score was inactive: 0.971. B14 was tested, and the enrichment score was inactive: 0.833. For B15, the enrichment score was inactive: 1.15. In the case of B16, the enrichment score is reported as active: 3.49. In the case of B17, the enrichment score is reported as inactive: 0.518. With B18 the enrichment score was inactive: 2.22.

Each binder was assayed against SHP2 C-SH2 domain wild-type in the same assay as above. Conditions: peptide library: pTyr-Var.
B1 was tested, and the enrichment score was inactive: 2.39. For B2, the enrichment score was inactive: 1.99. B3 was tested, and the enrichment score was inactive: 0.461. With B4 the enrichment score was inactive: 0.514. For B5, the enrichment score was inactive: 1.11. For B6, the enrichment score was active: 4.95. In the case of B7, the enrichment score is reported as inactive: 0.875. In the case of B8, the enrichment score is reported as inactive: 1.2. For B9, the enrichment score was inactive: 1.19. In the case of B10, the enrichment score is reported as inactive: 0.787. In the case of B11, the enrichment score is reported as inactive: 2.42. With B12 the enrichment score was inactive: 1.04. In the case of B13, the enrichment score is reported as inactive: 1.23. B14 was tested, and the enrichment score was inactive: 1.12. For B15, the enrichment score was inactive: 1.26. For B16, the enrichment score was inactive: 3.09. B17 was tested, and the enrichment score was inactive: 0.673. For B18, the enrichment score was inactive: 1.63.

The binders below were run against SHP2 N-SH2 domain L43F in the same assay as above. Conditions: peptide library: pTyr-Var.
In the case of B1, the enrichment score is reported as inactive: 2.52. In the case of B2, the enrichment score is reported as inactive: 2.03. For B3, the enrichment score was inactive: 0.328. In the case of B4, the enrichment score is reported as inactive: 0.699. With B5 the enrichment score was inactive: 1.06. For B6, the enrichment score was active: 4.31. With B7 the enrichment score was inactive: 1.33. With B8 the enrichment score was inactive: 0.993. With B9 the enrichment score was inactive: 0.52. For B10, the enrichment score was inactive: 0.771. B11 was tested, and the enrichment score was active: 3.27. For B12, the enrichment score was inactive: 0.986. In the case of B13, the enrichment score is reported as inactive: 0.941. For B14, the enrichment score was inactive: 0.818. In the case of B15, the enrichment score is reported as inactive: 1.07. With B16 the enrichment score was inactive: 3.05. B17 was tested, and the enrichment score was inactive: 0.719. In the case of B18, the enrichment score is reported as inactive: 1.82.

What follows are binders tested against SHP2 N-SH2 domain T42A in the same assay as above. Conditions: peptide library: pTyr-Var.
For B1, the enrichment score was inactive: 1.54. For B2, the enrichment score was inactive: 1.94. B3 was tested, and the enrichment score was inactive: 0.351. With B4 the enrichment score was inactive: 0.558. With B5 the enrichment score was inactive: 0.879. B6 was tested, and the enrichment score was active: 4.11. For B7, the enrichment score was inactive: 2.33. With B8 the enrichment score was inactive: 0.882. In the case of B9, the enrichment score is reported as inactive: 0.642. In the case of B10, the enrichment score is reported as inactive: 0.655. In the case of B11, the enrichment score is reported as inactive: 3.18. With B12 the enrichment score was inactive: 0.921. For B13, the enrichment score was inactive: 0.864. B14 was tested, and the enrichment score was inactive: 0.751. With B15 the enrichment score was inactive: 1.44. For B16, the enrichment score was inactive: 2.74. For B17, the enrichment score was inactive: 0.656. With B18 the enrichment score was inactive: 1.96.

Each binder was assayed against SHP2 N-SH2 domain T52S in the same assay as above. Conditions: peptide library: pTyr-Var.
For B1, the enrichment score was inactive: 2.59. For B2, the enrichment score was inactive: 2.18. For B3, the enrichment score was inactive: 0.496. B4 was tested, and the enrichment score was inactive: 0.551. For B5, the enrichment score was inactive: 0.858. B6 was tested, and the enrichment score was active: 4.35. In the case of B7, the enrichment score is reported as inactive: 1.34. In the case of B8, the enrichment score is reported as inactive: 0.881. For B9, the enrichment score was inactive: 0.366. In the case of B10, the enrichment score is reported as inactive: 0.79. B11 was tested, and the enrichment score was inactive: 3.17. With B12 the enrichment score was inactive: 0.822. B13 was tested, and the enrichment score was inactive: 0.85. B14 was tested, and the enrichment score was inactive: 0.623. B15 was tested, and the enrichment score was inactive: 1.33. B16 was tested, and the enrichment score was inactive: 2.75. B17 was tested, and the enrichment score was inactive: 0.712. In the case of B18, the enrichment score is reported as inactive: 1.98.

These binders were tested against SHP2 N-SH2 domain wild-type in the same assay as above. Conditions: peptide library: pTyr-Var.
B1 was tested, and the enrichment score was inactive: 2.21. With B2 the enrichment score was inactive: 1.5. In the case of B3, the enrichment score is reported as inactive: 0.38. For B4, the enrichment score was inactive: 0.481. For B5, the enrichment score was inactive: 1.17. With B6 the enrichment score was active: 4.78. In the case of B7, the enrichment score is reported as inactive: 1.01. B8 was tested, and the enrichment score was inactive: 1.18. For B9, the enrichment score was inactive: 0.64. In the case of B10, the enrichment score is reported as inactive: 0.905. For B11, the enrichment score was inactive: 3.11. B12 was tested, and the enrichment score was inactive: 1.23. In the case of B13, the enrichment score is reported as inactive: 1.14. In the case of B14, the enrichment score is reported as inactive: 0.662. For B15, the enrichment score was inactive: 0.886. B16 was tested, and the enrichment score was inactive: 2.92. B17 was tested, and the enrichment score was inactive: 0.713. In the case of B18, the enrichment score is reported as inactive: 2.27.
